Laboratory results as given in the RNAGym collection of RNA variant scans (doi:10.7554/elife.90254).
Read counts are not given, so values of variants with three or more changes are uncertain.

B1: LINE1-mini (parent)
chain: GGCAGAGCUCAACACAGCGUGGCAAAGUGGCUGUGGCUAGACUGCC

Variants of: B1
Test: self-cleavage, relative activity (ratio to wild type); higher = more cleavage; in vitro, sequencing; the parent is a self-cleaving ribozyme

Row | Variant | self-cleavage
1 | A11U C18U G19C G44C | 0.04
2 | A11G U32C G40A | 0.01
3 | A11G C23U A24U | 0.01
4 | A11U G30C U32C A39C | 0.02
5 | A12C G21U A39G C42A | 0
6 | A11G C18A U43G | 0.02
7 | A11G G36U C46U | 0.03
8 | A11U U20A A25G G44C | 0.03
9 | A11U A12G A24G G36A | 0.04
10 | A11G A24G A41U | 0.01
11 | A12C C13A A25C A39G C42U C46U | 0.03
12 | A11U C18A G35A A41U | 0.02
13 | A11U A25C A41C C45U | 0.01
14 | A11U G22A U28C G44A | 0.04
15 | A11U U38G G40U | 0.06
16 | A11C G29U C45U | 0
17 | A11G A12U G22U G27C A41C | 0
18 | A12C A16U G35U C37U | 0
19 | A11U G35U G36U | 0.03
20 | A11G G33A U43A C45U | 0.02
21 | A12C C18U A24C C31G G35U A41U | 0
22 | A11U C23G A24G C31A A41G | 0
23 | A11U C13A C23U A24C G33U | 0
24 | A11G G21C G33U | 0.03

Row | Variant | self-cleavage
25 | A11C G21A A25U A26G C31U U38C | 0
26 | A12C G21A C37A G44C C45A | 0.01
27 | A11U C23U G30C C42A | 0
28 | A11U U38C C45U | 0.02
29 | A12C G22C A25G | 0.01
30 | A11U A14G A24C G35C U38A | 0
31 | A11U G17U G27A U43A | 0.01
32 | A11G C15U C42A | 0
33 | A11U C23U G35A | 0
34 | A11G C18G G19U | 0.01
35 | A11G C18G G21A A26C G36A | 0.04
36 | A11U U38A A39C | 0.11
37 | A11G A14C C23U A26G A41G | 0.01
38 | A11C U20A G21A | 0.03
39 | A11G C15A C31G A39C | 0
40 | A11U G17A C45U | 0.02
41 | A11U A12C A16G G33C | 0.02
42 | A11G C13G A16C G19A U20C G21U | 0.01
43 | A11G G22A U38C C42U | 0.04
44 | A11G A25C C31U | 0.01
45 | A12C G19A U28C A39U C42G | 0.01
46 | A11U A25U U32A U34C C42U | 0.03
47 | A11G A14U G29U | 0.02
48 | A11G C13U G35A | 0.23

Row | Variant | self-cleavage
49 | A11G C13A A24U G35U | 0.02
50 | A11G G29U G33U G44U | 0.01
51 | A11G G27C G30C U34C | 0.01
52 | A11U G19C C42U C46G | 0
53 | A11G U34A G35C G40A | 0.02
54 | A11U G27U G40U | 0.02
55 | A11U A24C G33U G36C A39G | 0
56 | A11U C31U G35U | 0.02
57 | A11G A16U A25U C37U | 0.05
58 | A12C G33A G35C | 0.02
59 | A11G C13G A16C G36C | 0
60 | A11G G17A C18A C37A G44U | 0.04
61 | A11G G21A G27A U28A | 0
62 | A11G A12C C15U C18A G27C G30C C31A | 0.01
63 | A11U C23A G30U | 0.02
64 | A11G G21U G36A | 0.08
65 | A11G C15G U20A | 0.01
66 | A12C A25G G29C U43C | 0
67 | A11U C18A G35C C37A | 0.02
68 | A11U G17U G44A | 0.3
69 | A12C A26G G40A G44U | 0.01
70 | A12C A14C G44A | 0.04
71 | A12C G17U A26C G27U | 0.01
72 | A11U C18A U20G G22C U34C G36C U43A | 0

Row | Variant | self-cleavage
73 | A11G C13U C31U | 0.02
74 | A11G U28A A39C C46U | 0.02
75 | A11C G29A G40U | 0.03
76 | A12C C13A G17U C45U | 0
77 | A11G G27A U34G | 0.01
78 | A12C C18U G44A | 0.03
79 | A11G C23A C31A | 0.03
80 | A12C G30U C37U G40A | 0.02
81 | A11G C13A U20C G22U C23G C42G | 0.01
82 | A11G C13G C15U | 0.04
83 | A11C G36C C42U | 0.01
84 | A11G C23A G29U | 0.02
85 | A12C C23A A24C G27A | 0
86 | A11G A14U C15U C37G | 0.05
87 | A11C G29U U32A | 0.03
88 | A12C C13U U43C | 0.07
89 | A11G G17C C31G | 0.04
90 | A11U A16G G40C | 0.01
91 | A11G C31A C45A | 0
92 | A11U G21A A25G | 0.31
93 | A11G A41G C42G | 0.01
94 | A11G U28C U32C C42A | 0.01
95 | A12C G17U A25U U43A | 0.02
96 | A11C U20C A25G G29C G44U | 0.01

Row | Variant | self-cleavage
97 | A11U A12U C13U G17U A41C | 0.01
98 | A11U A14U A16U U28G | 0.02
99 | A11U G36A C45A | 0.01
100 | A11G A16G C18U A24U G29C A41U C45U | 0
101 | A11U G19C U28A C31U | 0.03
102 | A11G G29C C37A | 0
103 | A12C G19A G29C G33A | 0.01
104 | A11U C13A G29U C37U | 0.01
105 | A11U G29U C31A | 0.06
106 | A11U A12U G27A C37U | 0
107 | A12C C13A A14G U34G | 0.01
108 | A11U G29C U38G G40U | 0
109 | A11G U20G C37U | 0.02
110 | A11U G21C A26C G44A | 0.02
111 | A12C G22A A25U C45A | 0.02
112 | A11U U28C G29A G35U | 0.01
113 | A12C G17C G30A A41C | 0.01
114 | A11U A25U G40C | 0.04
115 | A11C G35U G44C | 0.01
116 | A11U A25C U34G | 0.03
117 | A11U G17U A25U G29A | 0.05
118 | A11G A25G U38C | 0.01
119 | A12C A14G G35C | 0.11
120 | A11U U34A U43A | 0.03

Row | Variant | self-cleavage
121 | A11C G22A C31U U32A G33A | 0.01
122 | A11U G27A A41C | 0.03
123 | A11G C15U U34C C45G | 0.02
124 | A12C C13A G19C A39U | 0.01
125 | A11U C15G C31A A41C C46A | 0.01
126 | A11G G22U A25U | 0.04
127 | A11G A12U G17C C18U C37G | 0
128 | A12C A14G A16G A26U G40A | 0.24
129 | A12C C13U G21C A25G G29U | 0.01
130 | A11C U32G G36A C42U | 0
131 | A11U C15U A16C G19A C23A C45G | 0.02
132 | A11C G33U C37G | 0.02
133 | A12C C15U G29A C42A | 0.01
134 | A11G G19A G30U A39U C45U | 0.05
135 | A11U A14U G21U | 0.06
136 | A11G C18G G21C C23A G40U | 0.01
137 | A12C C13A A24G C45G | 0.03
138 | A12C A25G G27A U38A | 0
139 | A12C C23U G29A | 0.02
140 | A11G A14U G33A G44U | 0.01
141 | A12C A25U A26U C37U | 0.01
142 | A11U A16G G35C U38G | 0.01
143 | A11U G22U C42A | 0.02
144 | A12C C13U C15A | 0.03

Row | Variant | self-cleavage
145 | A11G C18A U28C C45A | 0.02
146 | A11U A26C C42G | 0.02
147 | A12C G36A U38G G40U C46A | 0
148 | A11G G33A A39U | 0.04
149 | A11U C23A G40A | 0.02
150 | A11G A26G G35U | 0.01
151 | A11U C13A U43C | 0.01
152 | A11U A26U G29A C37U | 0.02
153 | A11U C18U G36A C42A | 0.02
154 | A11U G33U A39C C45A | 0.01
155 | A11C G27U G35C G44A C46A | 0.01
156 | A11C U20A C37A C42G C46A | 0
157 | A11U A26C A39U U43G | 0
158 | A11C G19C G40C C45U | 0.01
159 | A11C G21C A41G | 0.03
160 | A12C C15U G19C A26C | 0
161 | A11G U20G C45A | 0.03
162 | A11G C13A G33U | 0.06
163 | A11U C18G G21U C42A | 0.05
164 | A11U U20A C37G | 0
165 | A11G G35A G40U | 0
166 | A11C G19U G22U C23A U28A | 0.25
167 | A11U C23G U43G | 0
